Source: the RNAGym collection of RNA variant scans (doi:10.7554/elife.90254)
Read counts are not given, so values of variants with three or more changes are uncertain.

B1: OR4K15 (parent)
chain: GUUAACGGUCAUAGGCCAUGGAAACUAGGAGCACCAUUUCGCUGCCAGUGAAGAAAUGAACAAAGAAAAUCUGGGCCAGGCAGGCAUCAAAAGAAAUAGUCUUGCGCUCAACCAGAAAGUCUGUAAUCAUUUUAAGGGUA

Variants of: B1
Assay: self-cleavage, relative activity (ratio to wild type); higher = more cleavage; in vitro, sequencing; the parent is a self-cleaving ribozyme

Variant | self-cleavage
U57C A89C U108C | 0.02
A55G U103A A110U | 0.34
A59U A60G A67G A96G | 1.5
A59G A98G U131C | 0.78
A55G A63U C105U A111G | 0.01
A59G A60G A126C | 0.48
U57A U70C U108A | 0.02
A59G A60G U72A | 0.27
U57G A69G U103G | 0.06
A56G A60G A114G | 0.37
A56G A89U U97C | 2
A56G A90G C107U A110U | 0
A56G A63G A110G | 0.2
A55G A67G A96G | 2.21
A56G A114G U132A | 0.1
A56G U132C G138U | 0.83
U57C A66U U87C | 0.7
A59G A64G U108C | 0.02
A59G U70C A126G | 0.27
A55G U108C A111G A129G | 0
A56U A60G A82G | 0.54
A56G A95G A114U | 0.09
A55U A66G A129U | 0.94
A59G U72A U103C | 0.19

Variant | self-cleavage
A56C A92U A94G | 0.88
A56G U100C A116G U122A | 1.84
A54U U57A U131C | 0.74
U57C A60G C88U A98G U108C | 0.02
U57C A94G C128A | 0.81
A56G A82G A118C U127A G137A | 0.15
A56G A67G U103C A118G | 1.08
A59G A64G G65A A94G U132C | 1.03
A56G A95G A140G | 2.02
U57G U87C G115U | 0.11
U57C U70C A86G | 0.62
A56G A78G A94G A117C | 0.09
U57C A89G U122C | 0.61
A59G A90G A94G U103C C113A | 0.14
A55G A67G A69G U103C | 0.55
A59G A92G A118G | 0.56
A55G A67G A94U | 2.14
A59G A78G A96C U102C | 0.32
A59G A62G A110U | 1.37
A59G U87C A90G U97C A110U | 0.09
A56G U57A U103C A116G | 0.06
A59G A96G A114U | 0.07
A59G A66G U102A A135C | 0.58
A56G U57C A126G | 1.38

Variant | self-cleavage
A59U A67G A98G U100A | 0.21
U57C A89G A114G U127G | 0.3
A59G A78U A116G U132C | 0.08
A55G U102A A126G | 0.6
A59G A86G A89G U127C | 0.7
A59U A64G A94G U102C | 2.17
A59U U87C A94G | 2.57
U57C A63G A92G C105U A116G | 0.02
A55C A63G U97C | 0.34
A55G A91U A118G | 0.93
A59G U100A A117G | 0.57
A55G C85G U127C | 0.29
A54U G83A A92G | 0.44
A59G A60C A91G | 0.89
U57A A95G C109U | 0.45
A56G G106U A116G | 0
A59U A82G A92G | 0.7
A59G A82C U87C | 0.33
A55U A59G C77A | 0.68
U57C A82U A134U | 0.03
A54U A98G A117G | 0.63
A56G A63G A91G A134G | 0.73
A59G A60G U120A A125G | 0.29
U57C A66G A96U | 1.76

Variant | self-cleavage
A55G G73A U103A A117G A140G | 0.01
A55C A62U G74A U132C | 0.16
A55U A95G A116G | 1.84
A59G A62U G75A A98U | 0.08
A56G A95G U108C A125G | 0.01
U57C U124A A129G | 1.23
A55G A67G A114G U120C | 0.14
A56G A66G A125G | 0.41
A55C A60G A68G A82G A91G A126U | 0.01
A55G A64U U70G | 0.43
A59G A62G A67G U87C U97C U131C | 1.53
A59G U97C U127A | 2.42
A56G G73A A82C A135G | 0.29
A55G A68G U72C A111U U124C | 0.03
A56G A68G U103G | 0.05
U57C A89G U100C | 2.33
A56G U102C A118G U130C | 2.23
A56C A62G A114G | 0.06
A56G U108C C112G | 0
A59U A63G A118G | 1.74
A56G A69G G119A | 1.13
A59G A62U G106A A114G A140G | 0
A56G A98G U131C A134G | 0.11
A59G A129G U130C | 1.97

Variant | self-cleavage
A59G A68G A86G U130C | 0.38
A55U A66G A118G | 0.73
A56G A64U A82U | 0.14
A55G A114G A125G | 0.12
A59G A62U A63G | 1.92
A59G U102C U131C | 1.08
A59G A96G A125G | 0.74
U57G A64G A78G U139G A140U | 0.17
U57C A67G A69G A91G | 0.31
A56C A82G A91G | 0.09
A56G A96G A98G U108A | 0.02
A54U U57C U70C A89G U102C U131C | 1.14
A59U A62C A118G A126G | 0.76
A59G A67U U87C A140G | 2.03
A55C U72C A126G A129C | 0.17
A59U A69G U130C | 0.38
A59U A68G G75C A89G | 0.21
A56G U97C A111G | 0.03
U57C U108C A117G | 0.02
U57C A82G A117G U130C | 0.21
A59G A67G A126G | 0.87
A56G A63G A118G A125G | 0.14
A56G A116U U131C | 0.28
A59G A60G A62G U108C | 0.02

Variant | self-cleavage
U57A A110G A111G | 0.01
A55G A82C U132C | 0.15
A55G A66G A68G | 0.96
A56G A94G A111G U120A | 0.02
A55G U108A U122C | 0.01
A56G A66G U100C | 1.29
A59G A60U A66G U100C | 2.31
A59G U72A A89G A95G | 0.14
A59G G106A A135G | 0.02
A56G A68U A69G A82G | 0.21
A59G U131C U133C | 0.97
U57C A89U A90G | 0.75
A56G A66G A67G U120C | 1.26
U57A A96G A116G | 0.49
A59G U87C U122C | 0.77
A55G A96G U102C A117G U122C | 1.64
A56G A60G G74C A110U A116G | 0.05
A59G A91G A96G U127C | 0.26
A59U A66G A126G | 2.26
A59G A89C A92G G104A G123A | 0.03
A55U A59G U100G A117G | 1.68
A55G A86U A117G U122C | 1.84
A56G A96U A129G | 2.29
U57C G73A A90G | 0.03

Variant | self-cleavage
A56G U87C U100C | 2.11
U57A U103C U131C | 0.17
A56G A64G U87C U103C | 1.22
A55G G79U A92G U130C | 0.05
A59G A92G A135G | 0.98
A56G U70C U102C A116U | 0.42
A59U A89G U127C | 0.63
A56G A60G U97C A118U U120A | 0.23
A59G A117G U130C | 1.3
U57A C61U A67C | 2.31
A55G U87C A94C U102C U124C | 1
U57C A114G A129G | 0.44
A56G A69G A82G A91G | 0.19
U57C A82G A126G U131C | 0.2
A59G U124C U127C | 0.77
A59G A117U U139A | 0.91
A59G A67G G79U G106U U130C | 0
A59G A69G A92G U122C | 0.99
A59G A62G A92G | 1.11
A54U U72C G74A | 0.31
U57A A78U U108A | 0.04
A59G A78U A91G | 0.08
A56G A67G U124C | 1.2
